The values below come from PMC5017906.

By UniProt entry, the sequences of proteins in these tests, tags left out. Where a name states a change or a piece, a line headed by the entry shows the natural chain unless it says otherwise. Residues count along the entry.
UniProt Q9ERK7: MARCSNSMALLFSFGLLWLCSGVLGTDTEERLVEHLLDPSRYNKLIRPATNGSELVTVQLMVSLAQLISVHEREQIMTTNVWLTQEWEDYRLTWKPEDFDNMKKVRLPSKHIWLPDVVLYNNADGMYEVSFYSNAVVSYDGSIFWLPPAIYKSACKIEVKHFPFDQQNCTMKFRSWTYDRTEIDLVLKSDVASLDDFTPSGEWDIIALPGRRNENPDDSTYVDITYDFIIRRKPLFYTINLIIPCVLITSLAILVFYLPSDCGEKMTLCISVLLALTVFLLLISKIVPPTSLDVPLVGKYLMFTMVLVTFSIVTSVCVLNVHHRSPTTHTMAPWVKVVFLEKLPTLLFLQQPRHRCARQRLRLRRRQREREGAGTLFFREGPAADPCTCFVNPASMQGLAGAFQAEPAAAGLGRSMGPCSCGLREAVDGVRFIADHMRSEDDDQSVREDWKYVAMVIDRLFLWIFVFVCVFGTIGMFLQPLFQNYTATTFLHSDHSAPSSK
UniProt P49582, residues 23-502: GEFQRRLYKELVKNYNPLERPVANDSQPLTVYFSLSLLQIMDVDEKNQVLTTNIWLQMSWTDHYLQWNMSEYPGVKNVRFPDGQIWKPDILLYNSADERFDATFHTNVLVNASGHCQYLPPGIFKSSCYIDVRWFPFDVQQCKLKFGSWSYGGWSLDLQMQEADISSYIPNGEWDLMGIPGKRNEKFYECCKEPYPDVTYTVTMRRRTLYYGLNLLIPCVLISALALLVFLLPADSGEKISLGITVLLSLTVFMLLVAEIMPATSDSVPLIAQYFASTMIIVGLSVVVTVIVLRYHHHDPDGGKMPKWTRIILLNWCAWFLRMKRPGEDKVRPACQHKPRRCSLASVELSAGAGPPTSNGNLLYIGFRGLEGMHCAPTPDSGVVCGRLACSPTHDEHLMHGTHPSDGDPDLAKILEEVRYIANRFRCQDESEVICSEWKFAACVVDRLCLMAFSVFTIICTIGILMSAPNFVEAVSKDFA
UniProt P32297, residues 32-505: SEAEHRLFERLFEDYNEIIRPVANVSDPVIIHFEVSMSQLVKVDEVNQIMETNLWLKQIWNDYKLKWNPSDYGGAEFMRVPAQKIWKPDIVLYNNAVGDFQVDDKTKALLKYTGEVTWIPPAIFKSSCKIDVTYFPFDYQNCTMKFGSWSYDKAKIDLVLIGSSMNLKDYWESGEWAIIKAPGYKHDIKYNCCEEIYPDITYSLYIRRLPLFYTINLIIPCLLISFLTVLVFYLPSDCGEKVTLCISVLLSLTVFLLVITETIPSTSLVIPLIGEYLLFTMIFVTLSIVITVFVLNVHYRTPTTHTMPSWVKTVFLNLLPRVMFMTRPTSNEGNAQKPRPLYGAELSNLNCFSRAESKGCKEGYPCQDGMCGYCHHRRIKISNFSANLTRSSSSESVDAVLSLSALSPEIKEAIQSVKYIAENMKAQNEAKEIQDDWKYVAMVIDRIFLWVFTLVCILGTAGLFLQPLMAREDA
UniProt Q8R493, residues 21-495: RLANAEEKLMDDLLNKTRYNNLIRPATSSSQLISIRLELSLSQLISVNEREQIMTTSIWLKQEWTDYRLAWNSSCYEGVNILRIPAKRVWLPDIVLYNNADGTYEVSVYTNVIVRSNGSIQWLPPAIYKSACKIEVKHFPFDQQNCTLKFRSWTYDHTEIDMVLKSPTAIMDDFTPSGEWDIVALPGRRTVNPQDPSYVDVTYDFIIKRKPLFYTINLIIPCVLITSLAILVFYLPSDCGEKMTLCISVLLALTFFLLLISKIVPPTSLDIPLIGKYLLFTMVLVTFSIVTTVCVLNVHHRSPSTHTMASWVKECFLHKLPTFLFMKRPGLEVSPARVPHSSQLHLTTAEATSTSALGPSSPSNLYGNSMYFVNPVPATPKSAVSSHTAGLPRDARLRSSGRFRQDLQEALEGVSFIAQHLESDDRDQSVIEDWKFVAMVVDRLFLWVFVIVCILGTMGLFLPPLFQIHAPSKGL
UniProt P36544, residues 23-502: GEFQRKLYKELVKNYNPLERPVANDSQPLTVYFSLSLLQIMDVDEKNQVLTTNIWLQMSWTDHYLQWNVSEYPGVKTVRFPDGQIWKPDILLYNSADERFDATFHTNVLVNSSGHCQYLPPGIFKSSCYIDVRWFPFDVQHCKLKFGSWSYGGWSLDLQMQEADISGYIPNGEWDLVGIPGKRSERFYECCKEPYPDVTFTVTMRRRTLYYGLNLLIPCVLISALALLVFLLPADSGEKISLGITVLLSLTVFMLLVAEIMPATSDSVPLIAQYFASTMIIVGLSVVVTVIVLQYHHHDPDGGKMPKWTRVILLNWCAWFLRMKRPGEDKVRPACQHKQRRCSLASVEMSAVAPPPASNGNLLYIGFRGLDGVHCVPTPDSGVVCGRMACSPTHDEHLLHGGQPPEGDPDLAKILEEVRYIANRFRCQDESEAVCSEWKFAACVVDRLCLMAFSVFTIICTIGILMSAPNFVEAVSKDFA
UniProt P17787, residues 26-502: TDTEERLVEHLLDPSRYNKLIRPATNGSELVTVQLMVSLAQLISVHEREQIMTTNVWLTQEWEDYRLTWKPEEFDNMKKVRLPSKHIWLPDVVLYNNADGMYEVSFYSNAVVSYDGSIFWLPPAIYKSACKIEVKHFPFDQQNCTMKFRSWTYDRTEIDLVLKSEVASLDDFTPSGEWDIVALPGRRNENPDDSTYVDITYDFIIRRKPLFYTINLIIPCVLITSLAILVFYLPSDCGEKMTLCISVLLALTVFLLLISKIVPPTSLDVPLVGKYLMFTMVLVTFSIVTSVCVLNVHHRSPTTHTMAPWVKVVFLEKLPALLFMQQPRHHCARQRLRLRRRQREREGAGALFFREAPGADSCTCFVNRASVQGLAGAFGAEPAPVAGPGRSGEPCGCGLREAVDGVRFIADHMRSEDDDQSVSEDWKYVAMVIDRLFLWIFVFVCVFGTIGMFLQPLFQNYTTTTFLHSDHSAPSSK
UniProt P43681, residues 27-627: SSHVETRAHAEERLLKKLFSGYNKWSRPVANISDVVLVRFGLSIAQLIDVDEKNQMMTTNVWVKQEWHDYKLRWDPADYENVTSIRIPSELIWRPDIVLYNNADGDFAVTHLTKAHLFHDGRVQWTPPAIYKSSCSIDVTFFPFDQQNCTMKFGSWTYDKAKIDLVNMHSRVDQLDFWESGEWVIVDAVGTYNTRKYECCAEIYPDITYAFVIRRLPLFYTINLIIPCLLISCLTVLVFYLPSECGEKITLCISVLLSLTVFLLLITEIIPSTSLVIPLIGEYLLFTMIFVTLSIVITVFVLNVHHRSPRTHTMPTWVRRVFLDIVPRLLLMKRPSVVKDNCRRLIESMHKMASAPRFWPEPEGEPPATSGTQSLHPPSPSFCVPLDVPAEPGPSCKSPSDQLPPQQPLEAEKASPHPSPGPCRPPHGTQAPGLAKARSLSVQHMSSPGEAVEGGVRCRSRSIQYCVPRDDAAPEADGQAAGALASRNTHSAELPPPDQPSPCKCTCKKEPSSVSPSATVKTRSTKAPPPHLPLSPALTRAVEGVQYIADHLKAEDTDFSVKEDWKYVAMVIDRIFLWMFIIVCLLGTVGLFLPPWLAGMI
UniProt Q15825, residues 26-494: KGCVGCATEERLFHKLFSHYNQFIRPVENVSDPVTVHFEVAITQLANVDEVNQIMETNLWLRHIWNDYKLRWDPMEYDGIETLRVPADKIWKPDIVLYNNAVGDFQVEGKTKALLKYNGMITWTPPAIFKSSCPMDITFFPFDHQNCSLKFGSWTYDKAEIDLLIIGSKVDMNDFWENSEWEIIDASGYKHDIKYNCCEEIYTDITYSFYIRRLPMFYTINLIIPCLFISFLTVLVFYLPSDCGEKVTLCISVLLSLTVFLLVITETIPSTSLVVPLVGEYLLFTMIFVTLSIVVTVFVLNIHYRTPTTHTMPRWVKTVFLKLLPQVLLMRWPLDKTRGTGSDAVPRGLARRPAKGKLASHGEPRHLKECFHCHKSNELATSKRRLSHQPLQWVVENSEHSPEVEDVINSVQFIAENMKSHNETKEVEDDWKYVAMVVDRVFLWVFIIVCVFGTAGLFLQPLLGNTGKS
UniProt P30926, residues 22-498: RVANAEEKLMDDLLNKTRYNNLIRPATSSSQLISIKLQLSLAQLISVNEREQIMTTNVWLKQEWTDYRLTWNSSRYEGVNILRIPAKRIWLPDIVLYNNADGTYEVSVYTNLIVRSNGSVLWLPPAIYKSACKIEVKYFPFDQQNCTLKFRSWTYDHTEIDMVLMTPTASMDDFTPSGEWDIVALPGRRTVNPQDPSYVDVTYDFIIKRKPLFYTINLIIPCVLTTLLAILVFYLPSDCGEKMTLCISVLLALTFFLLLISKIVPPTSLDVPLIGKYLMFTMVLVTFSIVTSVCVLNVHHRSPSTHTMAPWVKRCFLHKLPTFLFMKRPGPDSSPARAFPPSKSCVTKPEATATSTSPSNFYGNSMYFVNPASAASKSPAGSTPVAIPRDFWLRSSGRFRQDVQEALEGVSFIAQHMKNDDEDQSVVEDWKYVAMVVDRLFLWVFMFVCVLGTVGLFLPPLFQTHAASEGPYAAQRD
UniProt P42262, residues 25-883: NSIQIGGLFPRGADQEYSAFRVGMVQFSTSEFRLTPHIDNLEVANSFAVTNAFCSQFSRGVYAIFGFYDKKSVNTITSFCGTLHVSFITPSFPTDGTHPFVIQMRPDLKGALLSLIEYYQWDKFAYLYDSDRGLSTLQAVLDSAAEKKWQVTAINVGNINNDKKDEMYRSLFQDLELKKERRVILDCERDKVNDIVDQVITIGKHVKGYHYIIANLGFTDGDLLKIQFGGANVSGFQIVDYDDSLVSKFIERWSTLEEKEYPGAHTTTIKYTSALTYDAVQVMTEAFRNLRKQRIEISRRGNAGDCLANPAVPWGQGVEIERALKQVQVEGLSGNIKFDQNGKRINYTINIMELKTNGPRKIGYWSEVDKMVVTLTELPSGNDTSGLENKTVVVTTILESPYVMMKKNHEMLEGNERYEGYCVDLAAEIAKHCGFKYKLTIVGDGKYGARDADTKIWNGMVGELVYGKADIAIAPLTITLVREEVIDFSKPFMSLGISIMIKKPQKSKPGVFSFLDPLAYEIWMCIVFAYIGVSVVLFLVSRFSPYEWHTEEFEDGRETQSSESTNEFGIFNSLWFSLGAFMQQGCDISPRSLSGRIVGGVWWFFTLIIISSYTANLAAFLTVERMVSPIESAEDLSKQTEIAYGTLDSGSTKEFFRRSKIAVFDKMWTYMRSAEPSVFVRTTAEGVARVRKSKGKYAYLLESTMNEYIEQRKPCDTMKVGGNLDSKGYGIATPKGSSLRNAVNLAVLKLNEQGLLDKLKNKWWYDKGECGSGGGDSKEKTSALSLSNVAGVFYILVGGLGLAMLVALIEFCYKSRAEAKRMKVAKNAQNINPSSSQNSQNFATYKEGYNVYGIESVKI
UniProt P30532, residues 23-468: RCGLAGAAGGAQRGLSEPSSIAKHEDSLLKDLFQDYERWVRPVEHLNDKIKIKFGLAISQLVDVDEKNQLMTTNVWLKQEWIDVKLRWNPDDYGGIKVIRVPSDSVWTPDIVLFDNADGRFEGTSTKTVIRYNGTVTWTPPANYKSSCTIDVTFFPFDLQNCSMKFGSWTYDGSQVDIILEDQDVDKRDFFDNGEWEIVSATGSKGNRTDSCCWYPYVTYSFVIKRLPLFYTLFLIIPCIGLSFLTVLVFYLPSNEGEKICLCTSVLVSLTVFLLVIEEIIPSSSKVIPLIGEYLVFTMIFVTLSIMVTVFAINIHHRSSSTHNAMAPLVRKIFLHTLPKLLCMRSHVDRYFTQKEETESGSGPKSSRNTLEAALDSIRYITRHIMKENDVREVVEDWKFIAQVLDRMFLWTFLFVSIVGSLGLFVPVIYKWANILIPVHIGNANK

No constants are given. Whether binding was seen depends on the method and setting. In cells and extracts the contact can be indirect. Some results given as binding are weak or reduced against the parent protein; the word gives no strength. Sequences can lack the tags named with a protein.

Assay [1] concerns the target T1, Recombinant human GST-tagged Lypd6 (LY6/PLAUR domain-containing 6) (human) (UniProt Q86Y78).
T1 sequence: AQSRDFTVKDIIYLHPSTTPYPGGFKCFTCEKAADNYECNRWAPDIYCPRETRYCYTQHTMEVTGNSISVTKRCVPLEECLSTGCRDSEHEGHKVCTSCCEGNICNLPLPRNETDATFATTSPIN
Description: pull-down; human recombinant Lypd6-coupled beads on cortical tissue of wild-type and α7, β2 or β4 knockout mice; western blot (Fig. S3); only the target purified. (In western blotting, separated proteins are transferred to a membrane and probed.)

In assay [2] the target is T1, Recombinant human GST-tagged Lypd6 (LY6/PLAUR domain-containing 6) (human). Description: pull-down; recombinant human GST-Lypd6 covalently coupled to NHS magnetic beads as bait; 700-1000 μg protein of 2% Triton X-100 extract of human temporal cortex membranes, 18-22 h at 4°C in lysis buffer (50 mM Tris, 50 mM NaCl, 5 mM EDTA, 5 mM EGTA, pH 7.5); washes with 1 M NaCl and 0.1 M NaCl, 0.5% Triton X-100; western blot; non-coupled beads as control; only the target purified.

For assay [3] the target is unchanged. Description: pull-down; only the target purified.

As for “β2 nAChR subunit (mouse cortical tissue) (from UniProt Q9ERK7 26-501) (receptor)”, the binding result in assay [1] is on record as “binds”.

“α7 nAChR subunit (mouse cortical tissue) (from UniProt P49582 23-502) (receptor)”: the binding entry in assay [1] is listed as “binds”.

With “α3 nAChR subunit (human temporal cortex) (from UniProt P32297 32-505) (receptor)”, the binding entry in assay [2] and in assay [3] was “binds” in each case.

For “β4 nAChR subunit (mouse cortical tissue) (from UniProt Q8R493 21-495) (receptor)”, in assay [1], the binding result is given as “binds”.

Consider “α7 nAChR subunit (human temporal cortex) (from UniProt P36544 23-502) (receptor)”, for which the binding result in assay [2] is given as “binds”.

In the case of “β2 nAChR subunit (human temporal cortex) (from UniProt P17787 26-502) (receptor)”, the binding result in assay [2] and in assay [3] was “binds” in each case.

Turning to “α4 nAChR subunit (human temporal cortex) (from UniProt P43681 27-627) (receptor)”, the binding entry in assay [2] and in assay [3] was “binds” throughout.

As to “α6 nAChR subunit (human temporal cortex) (from UniProt Q15825 26-494) (receptor)”, the binding entry in assay [2] and in assay [3] was “binds” in each case.

On to “β4 nAChR subunit (human temporal cortex) (from UniProt P30926 22-498) (receptor)”, for which the binding entry in assay [2] and in assay [3] was “binds” in each case.

Regarding “GluR2 AMPA receptor subunit (human temporal cortex) (from UniProt P42262 25-883)”, the binding result in assay [2] is listed as “no binding”.

“α5 nAChR subunit (human temporal cortex) (from UniProt P30532 23-468) (receptor)”: the binding result in assay [2] and in assay [3] was “binds” each time.
